Experimental data reported in patent US20240034784A1 (published 2024).

B1: sdab-38-hIgG1Fc (Fc fusion)
chain: EVQLVESGGGLVQAGGSLRLSCVASGSIFHIPIMSWYRRAPGKQRELVAGISTGGSTNYADSVKGRFTISRDNAKNTVYLQMNSLKPDDTAVYYCNSLIKEEAWGTFGDYWGQGTQVTVSS[sequence of human IgG1 Fc with C220G (EU numbers) omitted]
B2: sdab-25-hIgG1Fc (Fc fusion)
chain: QVKLEESGGGLVQAGGSLRLSCVASGSIYRINNMAWYRQAPGKQRELVAESTSGGNFIYADSVKGRFAISRDNAKNTVYLQMNSLQPEDTAVYSCNAFIIPSVGVFASRTYWGRGTQVTVSS[sequence of human IgG1 Fc with C220G (EU numbers) omitted]
B3: sdab-37-hIgG1Fc (Fc fusion)
chain: QVKLEESGGGLVQAGGSLRLSCAVSGNFLNIVTMGWYRQAPGKQRELVATTTRGGSTSYSDSVKGRFTISRDNAKSTVYLQMNSLKPEDTAVYYCNADIIPGFLQQLTVHWGQGTRVTVSS[sequence of human IgG1 Fc with C220G (EU numbers) omitted]
B4: sdab-5-hIgG1Fc (Fc fusion)
chain: DVQLVESGGGLVQAGGSLRLSCAASVGIFMGGWYRQAPGKQRELVATISSSGRTNYADSVKGRFTISGDNSMNTVYLQMNSLKPEDTAVYYCYAHYWRDYWGRGTQVTVSS[sequence of human IgG1 Fc with C220G (EU numbers) omitted]
B5: sdab-19-hIgG1Fc (Fc fusion)
chain: QVKLEESGGGLVQAGGSLRLSCAASVSIDGILAMGWYRQAPGKQRELVATIHSRGNTNYADSVKGRFTVSRENNKNTMYLQMNSLKPEDTAVYYCYVHFWIDYWGQGTQVTVSS[sequence of human IgG1 Fc with C220G (EU numbers) omitted]
B6: sdab-36-hIgG1Fc (Fc fusion)
chain: QVKLEESGGGLVQAGGSLRLSCAISGSIFSNTYMGWYRQAPGRQRELVARISGGGSVHYLDSVKGRFTISRDNAKNTLNLQMNSLTPEDTAIYYCYAHYWMDYWGQGTQVTVSS[sequence of human IgG1 Fc with C220G (EU numbers) omitted]
B7: sdab-21-hIgG1Fc (Fc fusion)
chain: QVQLVESGGGLVQAGGSLRLSCAASGRILNLNDMGWYRQTPGKQRELVASIFSSGTTNYADSAKGRFTISRDNAKKMIYLQMNSLKPEDTAVYYCNADVVTGLLQRNVYWGQGTQVTVSS[sequence of human IgG1 Fc with C220G (EU numbers) omitted]
B8: sdab-30-hIgG1Fc (Fc fusion)
chain: QVQLVESGGGLVQAGGSLRLSCAASGSIYRINNMAWYRQAPGKQRELVAEITSSGNTLYADSVKGRFTISSDGARNTVYLQMNSLKPEDTAVYSCNAFIIPSVGVFTSRAYWGRGTQVTVSS[sequence of human IgG1 Fc with C220G (EU numbers) omitted]
B9: sdab-22-hIgG1Fc (Fc fusion)
chain: AVQLVESGGGLVQAGGSLRLSCVASGSWFRIQTMGWYRQTPGKQRELVADITTGGGSTYYVDSVKGRFTISRDNAKNTVYLQMINLKPEDTAAYYCQANVLEALFRPNLEVWGQGTLVTVSS[sequence of human IgG1 Fc with C220G (EU numbers) omitted]
B10: sdab-3-hIgG1Fc (Fc fusion)
chain: B2 chain with V23A, S51I, G54S, G55D, F57T, I58Y, A68T, Q86K, A107S
B11: sdab-24-hIgG1Fc (Fc fusion)
chain: QVKLEESGGGLVEAGGSLRLSCVASGSILNLMTMGWYRQAPGKQRELVATATPGGTTNYADSVKGRFTISRDNAKNTVYLQMNTLRPGDTAVYYCNADVVYGLARQGNYWGPGTQVTVSS[sequence of human IgG1 Fc with C220G (EU numbers) omitted]
B12: sdab-14-hIgG1Fc (Fc fusion)
chain: B8 chain with Q3K, V5E, L58D, S71R, G73N, R75K, A110T
B13: sdab-28-hIgG1Fc (Fc fusion)
chain: QVKLEESGGGLVQAGGSLRLSCAASGSSNADIRFMGWYRQPAGNQRNNQREPVAMVDTTGRINYADSVKGRFTISRDNAKNTVSLQMNSLKPEDTALYYCTAVLWPRGAISAMTVWGQGTQVTVSS[sequence of human IgG1 Fc with C220G (EU numbers) omitted]
B14: sdab-15-hIgG1Fc (Fc fusion)
chain: QVKLEESGGGLVQAGGSLRLSCAASGSILNINSMSWYRQAPGKQRELVATITVGGSTNYADSVKGRFTISRYNANNMMYLQMNSLKPDDTGVYSCNARIVSGFLRGPDDYWGQGTQVTVSS[sequence of human IgG1 Fc with C220G (EU numbers) omitted]
B15: sdab-12-hIgG1Fc (Fc fusion)
chain: QVKLEESGGGLVQAGGSLTLSCAASRSIFSIDVMAWYRQAPGKQRELVARIWADGSTTYADSMKGRFAISRDTAKNTVYLQMNSLKPEDTAVYYCNAVGTIADGAFRPYNNWGQGTQVTVSS[sequence of human IgG1 Fc with C220G (EU numbers) omitted]
B16: sdab-27-hIgG1Fc (Fc fusion)
chain: AVQLVDSGGGLVQAGGSLRLSCAVSGSFLNIVTMGWYRQAPGKQRELVATTTRGGSTNYADSVKGRFTIARDNAKNTVYLHMDALKPEDTAVYYCNAEIIPGFLQQLTLYWGQGTQVTVSA[sequence of human IgG1 Fc with C220G (EU numbers) omitted]
B17: sdab-11-hIgG1Fc (Fc fusion)
chain: EVQLVESGGGLVQAGGSLRLSCVASGTILNIPLMAWFRQTPGKQRELVAGITTGGTTNYADSAKGRFTISRDNAKKTIYLQMDSLKPEDTAVYYCNADVVTGLMRRNVYWGQGTQVTVSS[sequence of human IgG1 Fc with C220G (EU numbers) omitted]
B18: sdab-26-hIgG1Fc (Fc fusion)
chain: DVQLVESGGGPVQAGGSLRLSCVASGSIYRINEMAWYRQAPGKQRELVAVAPNSVNPNYADSVKGRFTISRGNAKNTVYLQMNSLKPEDTAVYSCNAFIIPSVGVFTSRVYWGRGTQVTVSS[sequence of human IgG1 Fc with C220G (EU numbers) omitted]
B19: sdab-1-hIgG1Fc (Fc fusion)
chain: QVKLEESGGGLAQAGGSLRLSCAASGRILNIAVMAWYRQTPGRQRELVAAITFGGSTDYADAVKGRFTISRDSAKNTVYLQMNDLKSEDTAVYYCNADVVTGLMRRDVYWGQGTQVTVSS[sequence of human IgG1 Fc with C220G (EU numbers) omitted]

target: T1, human Claudin 18.2 (human, UniProt P56856 1-261); test: FACS

Row | EC50 | Binder
1 | 3.79 nM | B1
2 | 1.17 nM | B2
3 | 2.53 nM | B3
4 | 5.13 nM | B4
5 | 5.85 nM | B5
6 | 3.53 nM | B6
7 | 3.54 nM | B7
8 | 5.12 nM | B8
9 | 3.83 nM | B9
10 | 2.69 nM | B10
11 | ~3.75 nM | B11
12 | 2.98 nM | B12
13 | 3.25 nM | B13
14 | 4.94 nM | B14
15 | 11.5 nM | B15
16 | 12.7 nM | B16
17 | 4.12 nM | B17
18 | 7.68 nM | B18
19 | 4.04 nM | B19

target: T1, human Claudin 18.2; test: FACS; remark: another data set of the same source

Row | EC50 | Binder
20 | 7.55 nM | B1
21 | 1.34 nM | B2
22 | 5.55 nM | B4
23 | 3.36 nM | B6

Where a chain is given by its changes, count along the chain named.
